Measured values as given in PubChem BioAssay AID1745853 (National Center for Advancing Translational Sciences (NCATS), 2022).
The list shows a part of the results. Further columns of the screen follow, without active or inactive calls.

Experiments:
Experiment in all cases: Primary Screen for Target Class Profiling of Small Molecule Inhibitors of Methyltransferases
[1] = biological target: Glycine N-methyltransferase (Homo sapiens) (UniProt Q14749); conditions: purified enzyme, MTase-Glo SAH luminescence; measured here: GNMT inhibition; at 40 µM; stronger effect = lower value
Method in brief: (§1)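 Each enzyme was reacted with SAM and its substrate, with compounds tested once at 40 uM; SAH formed was read by MTase-Glo luminescence.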

[2] = biological target: Guanidinoacetate N-methyltransferase (Homo sapiens) (UniProt Q14353); conditions: purified enzyme, MTase-Glo SAH luminescence; measured here: GAMT inhibition; at 40 µM; stronger effect = lower value
Method in brief: as §1

[3] = biological target: Histamine N-methyltransferase (Homo sapiens) (UniProt P50135); conditions: purified enzyme, MTase-Glo SAH luminescence; measured here: HNMT inhibition; at 40 µM; stronger effect = lower value
Method in brief: as §1

[4] = biological target: Nicotinamide N-methyltransferase (Homo sapiens) (UniProt P40261); conditions: purified enzyme, MTase-Glo SAH luminescence; measured here: NNMT inhibition; at 40 µM; stronger effect = lower value
Method in brief: as §1

[5] = biological target: Phenylethanolamine N-methyltransferase (Homo sapiens) (UniProt P11086); conditions: purified enzyme, MTase-Glo SAH luminescence; measured here: PNMT inhibition; at 40 µM; stronger effect = lower value
Method in brief: as §1
% is set by controls: 0 for no effect and ±100 for the full control effect.

| Structure (SMILES) | activity change, negative = inhibition [1] [%] | activity change, negative = inhibition [2] [%] | activity change, negative = inhibition [3] [%] | activity change, negative = inhibition [4] [%] | activity change, negative = inhibition [5] [%] |
| --- | --- | --- | --- | --- | --- |
| COc1ccccc1CNC(=O)C1(C)Cn2c(cc3ccccc32)C(=O)N1Cc1cccc(Cl)c1 (centres undefined) | -4.26 | 2.71 | -7.78 | -8.47 | -7.24 |
| CN1C(=O)CC[C@]2(C(=O)N3CCCCC3)CCCC[C@@H]12 | 0.155 | -0.115 | 1.34 | -0.878 | 2.23 |
| CCCn1cc(S(=O)(=O)N[C@H](CC)C2CC(O)C2)cn1 (some centres undefined) | -2.11 | 0.55 | 0.604 | 5.91 | 0.71 |
| Cc1ccc(Cn2nc3n(CCC(C)C)c(=O)c4ccc(C(=O)NC5CCCC5)cc4n3c2=O)cc1 | 3.04 | 0 | 5.56 | 5.45 | 3.54 |
| CCc1nc(C)sc1C(=O)N1C[C@@H](C(=O)O)[C@H](c2cccc(OC)c2)C1 | -1.99 | -1.21 | 0.586 | -3.53 | -5.41 |
| Cc1ccc(NC(=O)Cn2nc3n(CCc4ccccc4)c(=O)c4ccccc4n3c2=O)c(Cl)c1 | 1.66 | 0 | 3.26 | 2.7 | 1.33 |
| CC1=CC(=O)[C@]2(O[C@@H]3O[C@@H](C)[C@H](O)[C@@H](O)[C@H]3OC(=O)/C=C/c3ccccc3)C=CO[C@@H](O[C@@H]3O[C@H](CO)[C@@H](O)[C@H](O)[C@H]3O)[C@H]12 | 0 | 0.636 | 1.29 | -11.5 | 4.07 |
| COc1cncc([C@@H](NC(=O)Cc2ccsc2)C2CC(O)C2)c1 (some centres undefined) | -1.61 | -3.25 | 0.146 | -1.77 | 2.03 |
| Oc1c(C(c2ccccc2)N2CCOCC2)sc2nc(-c3ccco3)nn12 (centres undefined) |  | -10.8 |  | -22.7 | -2.76 |
| CCCCN(CC)CCN1C(=O)c2ccc(-c3ccco3)n2CC1(C)C(=O)NC1CCCCCCC1 (centres undefined) | 0.926 | 4.09 | -1.4 | -8.34 | -0.31 |
| C=CCN1CCN(C(=O)[C@@H]2Cc3c[nH]c4cccc(c34)[C@H](CC(C)C)N2)CC1 | -10 | -8.98 | -35.3 | -13.5 | -10.4 |
| CN1C(=O)c2cc(C(=O)NCCc3ccccc3Cl)nn2CC1(C)C(=O)NCc1ccccc1 (centres undefined) | 3.1 | 0 | 1.95 | 8.5 | 2 |
| CC1(C(=O)NCc2ccccc2)Cn2cnc(C(=O)NCc3ccccc3Cl)c2C(=O)N1C1CC1 (centres undefined) | -3.87 | -0.724 | 0.332 | -4.56 | 2.6 |
| COc1ccc(CN2C(=O)CSc3c(c4ccccc4n3C)C2C(=O)NCCCOC(C)C)cc1 (centres undefined) | 4.22 | -7.21 | 6.65 | -7.54 | -2.99 |
| CC1=C2C[C@H]3O[C@@]3(C)CCC3O[C@@]3(C)C[C@@]2(O)OC1=O (some centres undefined) | -0.535 | 7.46 | 7.44 | -4.01 | 7.76 |
| C/C=C/C=C/C(O)=C1\C(=O)[C@]2(C)C3C(C(=O)CC/C=C/C)=C(O)C4(C)C1[C@]1(C)O[C@@]4(O)[C@@]3(C)O[C@@]12O | -1.86 | -13.9 | -2.51 | -25.9 | -2.43 |
| O=C1NCCCCCCN(C(=O)c2cc(C3CC3)[nH]n2)[C@H]2CCCC[C@@H]12 | -1.49 | 0.725 | -0.529 | -2.11 | 3.27 |
| Cc1cc(NS(=O)(=O)c2cc3c(cc2C)n(C)c(=O)n3C)ccc1Br | -4.42 | 10 | 3.58 | -2.46 | 0.953 |
| COCC(c1ccccn1)N(C)Cc1cn(-c2ccccc2)nn1 (centres undefined) | -3.75 | -9.19 | -8.75 | -8.53 | -2.82 |
| Cc1ccc(NC(=O)Cn2c(=O)oc3cc(S(=O)(=O)NCc4ccccc4)ccc32)cc1C | -4.44 | 2.62 | 3.81 | 4.29 | 0.513 |

| Structure (SMILES) | activity change, negative = inhibition [1] [%] | activity change, negative = inhibition [2] [%] | activity change, negative = inhibition [3] [%] | activity change, negative = inhibition [4] [%] | activity change, negative = inhibition [5] [%] |
| --- | --- | --- | --- | --- | --- |
| O=C(NCc1ccc(Cl)cc1)c1cc2n(n1)CC(c1ccc3c(c1)OCO3)OC2 (centres undefined) | -2.88 | -5.82 | -4.26 | -1.87 | -6.94 |
| CC1(C(=O)NC2CCCCC2)Cn2c(cc3ccccc32)C(=O)N1Cc1cccc(F)c1 (centres undefined) | -2.9 | 3.45 | 1.38 | 4.25 | 1.44 |
| COc1ccccc1CNC(=O)CCc1nnc2n(Cc3ccccc3Cl)c(=O)c3ccccc3n12 | 0.869 | 0 | 7.85 | 7.17 | 0.962 |
| O=C(c1cnc2n1CCN(CCc1ccccc1)CC2)N1CCC(c2ccccc2)CC1 | -2.06 | 2.5 | 1.24 | -10.4 | -1.34 |
| COc1ccc(S(=O)(=O)N[C@H]2C[C@H]3C(=O)NC[C@@H](CCC(=O)NCc4ccccc4)N3C2)cc1 | -4.59 | -1.46 | 1.05 | -6.05 | -1.73 |
| O=C(c1ccc(=O)[nH]n1)N1CCc2ncnc(N3CCOCC3)c2CC1 | -6.46 | -14 | -4.73 | -10.5 | -9.96 |
| CCOc1ccc(N2C(=O)c3c(C(=O)OC)ncn3CC2(C)C(=O)NCc2ccccc2)cc1 (centres undefined) | 0.835 | 0 | 10.6 | -1.8 | 6.41 |
| COc1ccc(CCNC(=O)c2ccc(CN3C(=O)CCn4nccc43)cc2)cc1OC | -21.3 | -15.9 | -9.14 | -12.3 | -33.4 |
| O=C(NCc1ccc(F)cc1)c1ccc2c(=O)nc3c(-c4cccc(F)c4)n[nH]n3c2c1 | -17 | 1.47 | -3.67 | -12.5 | -4.13 |
| CCC(C)NC(=O)CCn1ccc2cc(S(=O)(=O)N3CCCCC3)ccc21 (centres undefined) | 6.18 | 1.98 | 10.3 | 7.93 | 6.42 |
| CCCn1c(=O)c2[nH]c(-c3ccc(OCC(=O)O)cc3)nc2n(CCC)c1=O | -2 | 1.64 | 11.3 | -14.7 | 2.71 |
| CN(C)CCNC(=O)Cn1ccc2cc(S(=O)(=O)N3CCCCC3)ccc21 | 8.79 | 0.955 | -2.78 | 11 | 5.92 |
| CC(C)CCn1c(=O)c2ccc(C(=O)NC(C)C)cc2n2c(=O)n(Cc3ccccc3)nc12 | -4.52 | -5.78 | 7.91 | -3.16 | -6.43 |
| Cc1ccc(NC(=O)c2ncn3c2C(=O)N(C2CC2)C(C)(C(=O)NCc2ccc(F)cc2)C3)c(Cl)c1 (centres undefined) | 0.117 | 0.178 | 1.49 | 0.238 | 0.515 |
| C=C1C(O)CC2C(C(=O)O)=COC(OC3OC(CO)C(O)C(O)C3OC(=O)/C=C\c3ccc(O)cc3)C12 (centres undefined) | 5.09 | 6.55 | 6.48 | -6.58 | 3.33 |
| CN(C)CC[C@H](CSc1ccccc1)Nc1ccc(S(=O)(=O)NC(=O)c2ccc(N3CCN(Cc4ccccc4-c4ccc(Cl)cc4)CC3)cc2)cc1[N+](=O)[O-] |  | -38 |  | -73.5 | -63 |
| O=C(CCc1nnc2n(Cc3ccccc3Cl)c(=O)c3ccccc3n12)N1CCC(Cc2ccccc2)CC1 | -5.4 | 0 | -1.27 | 9.41 | 1.69 |
| CCN1C(=O)c2cc3ccccc3n2CC1(C)C(=O)NCC(=O)NCc1cccc(C)c1 (centres undefined) | -2.66 | 0 | 4.76 | -0.929 | -0.233 |
| COc1ccc(OC)c(CN2C(=O)c3cc(-c4ccccc4)nn3CC2(C)C(=O)NCc2ccccc2)c1 (centres undefined) | 0.84 | 7.56 | 0.574 | -1.74 | -4.1 |
| CC(=O)SCC[N+](C)(C)C | -0.483 | 8.56 | -3.8 | -0.212 | 10.3 |

| Structure (SMILES) | activity change, negative = inhibition [1] [%] | activity change, negative = inhibition [2] [%] | activity change, negative = inhibition [3] [%] | activity change, negative = inhibition [4] [%] | activity change, negative = inhibition [5] [%] |
| --- | --- | --- | --- | --- | --- |
| COc1ccccc1CNC(=O)C1(C)Cn2nc(-c3ccccc3)cc2C(=O)N1Cc1ccc(SC)cc1 (centres undefined) | 7.41 | 0.936 | 8.64 | 0.095 | 2.6 |
| N#CC1(c2cccc(C(=O)Nc3cc(Oc4ccc5nc(NC(=O)C6CC6)sc5n4)ccc3F)c2Cl)CC1 | 2.94 | -31.5 | 5.55 | -46.9 | -18.4 |
| CCCOc1ccccc1C(C)Nc1nc(-c2cccnc2)nc2c1CNC2 (centres undefined) | -30.5 | -24.3 | -37 | -36.1 | -15 |
| CC(C)COC(=O)OCN1C(=O)CN(CCN2CC(=O)N(COC(=O)OCC(C)C)C(=O)C2)CC1=O | -12 | 5.34 | 0.531 | -5.3 | 3.67 |
| CC1CC(C)CN(S(=O)(=O)c2ccc3c(c2)oc(=O)n3CC(=O)N2CCc3ccccc3C2)C1 (centres undefined) | -1.65 | 0.425 | -1.77 | 2.38 | -0.278 |
| COCCN(C)C[C@H]1C[C@@H](CO)CN(C(=O)c2ccc(C)c(Cl)c2)C1 | -3.68 | 2.28 | 1.31 | 1.2 | 2.84 |
| CN(c1ccc(NC(=O)Nc2ccc(OC(F)(F)F)cc2)cc1)c1ccnc(Nc2cccc(S(N)(=O)=O)c2)n1 |  | 6.9 |  | -5.06 | 5.62 |
| Cc1nocc1C(=O)N1C[C@@H](CO)[C@H](c2ccccn2)C1 | -2.1 | -5.73 | 1.41 | -4.25 | -1.29 |
| O=C(NC1CCCCC1)O[C@@H]1CO[C@H]2[C@@H]1OC[C@@H]2NS(=O)(=O)c1ccc(Cl)cc1 | -5.06 | -6.21 | -2.03 | -9.83 | -9.58 |
| O=C(Nc1nc2ccccc2n1CCN1CCOCC1)c1cccc([N+](=O)[O-])c1 | 3.02 | 12.7 | 11.1 | -6.4 | 1.74 |
| COc1ccc(OC)c(NC(=O)N2Cc3c(sc4c3CCCC4)-n3cccc3C2c2ccccc2)c1 (centres undefined) | -3.69 | -0.011 | -2.33 | -10.6 | -1.63 |
| COc1ccc(C(=O)Cn2nc3n(CC(C)C)c(=O)c4ccccc4n3c2=O)cc1OC | 6.31 | 0 | 12.3 | 6.86 | 7.87 |
| O=c1cc(N2CCN(c3cccc(C(F)(F)F)c3)CC2)[nH]c(=O)n1C1CCCCC1 | 5.38 | -2.95 | 2.91 | -17.5 | -4.71 |
| Cn1c(=O)n(C)c2cc(S(=O)(=O)N3CCC(Cc4ccccc4)CC3)ccc21 | 10.3 | 1.24 | 5.76 | -1.49 | 4.29 |
| COC(=O)C1=C(C)N=C2SC=C(CC(=O)NCCCN3CCCC3=O)N2C1c1ccccc1 (centres undefined) | -2.32 | -1.02 | -3.65 | -4.83 | -1.23 |
| O=[N+]([O-])c1ccc2c(c1)S(=O)(=O)C=C2 | -16.6 | 11.2 | 11.4 | -5.6 | 0.948 |
| CCn1ccc(C(=O)N2CC3CC(C2)[C@H]2CCCC(=O)N2C3)n1 (some centres undefined) | 1.22 | -0.6 | 0.504 | 2.23 | 0.359 |
| O=S(=O)(NCCn1c(-c2ccc(F)cc2)nc2ccccc21)c1ccc(Br)cc1 | -3.39 | 0 | 4.06 | -5.62 | 7.99 |
